# Assay results from the supplement of paper PMC3334620.
# In all, about 33,000 sequences were measured (“E-score (-0.5 to 0.5)”: median about -0.012, highest 2% from about 0.29 on). The list shows a part of the results.
# Target: T1, Ybr033w (UniProt P38073)
# T1 sequence: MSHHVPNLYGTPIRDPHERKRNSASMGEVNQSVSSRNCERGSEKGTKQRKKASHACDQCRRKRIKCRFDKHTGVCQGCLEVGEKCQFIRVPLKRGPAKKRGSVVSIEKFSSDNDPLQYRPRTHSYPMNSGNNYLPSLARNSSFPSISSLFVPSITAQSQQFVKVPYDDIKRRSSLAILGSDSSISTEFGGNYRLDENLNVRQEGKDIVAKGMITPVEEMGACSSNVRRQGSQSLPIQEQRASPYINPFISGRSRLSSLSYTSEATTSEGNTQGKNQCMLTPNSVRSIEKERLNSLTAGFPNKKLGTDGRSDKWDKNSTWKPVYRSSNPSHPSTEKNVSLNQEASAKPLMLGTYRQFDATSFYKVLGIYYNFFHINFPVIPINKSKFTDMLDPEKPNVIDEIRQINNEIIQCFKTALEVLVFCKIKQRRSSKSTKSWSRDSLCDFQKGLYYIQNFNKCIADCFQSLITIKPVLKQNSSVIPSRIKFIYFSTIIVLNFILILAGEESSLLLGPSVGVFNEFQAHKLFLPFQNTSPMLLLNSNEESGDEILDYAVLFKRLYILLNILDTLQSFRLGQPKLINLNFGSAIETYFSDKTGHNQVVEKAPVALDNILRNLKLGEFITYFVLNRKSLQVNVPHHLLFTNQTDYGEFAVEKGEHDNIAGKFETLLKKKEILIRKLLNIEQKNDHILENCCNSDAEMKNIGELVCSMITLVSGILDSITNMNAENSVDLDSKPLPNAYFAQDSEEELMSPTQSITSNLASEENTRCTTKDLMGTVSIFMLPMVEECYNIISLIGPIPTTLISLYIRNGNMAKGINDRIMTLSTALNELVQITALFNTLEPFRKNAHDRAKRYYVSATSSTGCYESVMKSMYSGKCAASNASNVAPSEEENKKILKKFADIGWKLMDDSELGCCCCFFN
# Assay: PBM E-score (8-mer binding enrichment) (E-score (-0.5 to 0.5)); higher = stronger / more preferred TF binding; most listed sequences are background and not binding sites
# Conditions: protein concentration: 200 nM; construct: GST-full length
# In short: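 Yeast transcription factors carrying a GST tag, as full-length proteins or DNA-binding domains, were produced by PURExpress in vitro transcription/translation. About 100-200 nM protein was applied to universal all-10-mer Agilent arrays, double-stranded by primer extension on fresh or once-stripped slides. Bound protein was detected with fluorescent anti-GST, and scans were normalised with masliner. The Universal PBM Analysis Suite gave each ungapped eight-base word, pooled with its reverse complement, an E-score, a modified Wilcoxon-Mann-Whitney statistic.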
row,Sequence,PBM E-score
1,CACTCCCA,-0.0427
2,CGCATGAG,-0.203
3,AACGTATA,0.2
4,ATTCGTCG,0.143
5,ATTACAAT,0.0893
6,CCCCTCGC,-0.168
7,AATGCAGA,0.122
8,CGTTCGAA,0.116
9,GCTGATAA,0.207
10,GGACTACA,0.0454
11,CGGAAAAC,0.0147
12,CATAGATC,0.00953
13,CTTCGTCC,-0.165
14,GAGCGGTA,-0.0319
15,ACAAAAGA,0.226
16,TAAAGCGA,0.106
17,ATGGGTAC,0.0672
18,CACGATGC,-0.313
19,AGTTTAGG,-0.0698
20,AACCATCT,0.00912
21,TCTTGTCA,0.00613
22,GATCACTA,0.0142
23,AACGTCCG,-0.109
24,TAAATTTA,0.289
25,CGATAATA,0.0851

row,Sequence,PBM E-score
1,AGTCCGCA,-0.0267
2,CGTCCGTC,-0.265
3,TACGCGTA,-0.0915
4,GTGGAGAA,0.0635
5,CCTTCGCA,-0.107
6,GCTACCTA,0.0581
7,GTTCCCTA,0.0774
8,ACTACGAA,0.117
9,GTGATGCA,0.172
10,AAACGGCC,0.00201
11,CCTGGAAA,0.034
12,CGGGTTGA,-0.147
13,ACGCAACA,0.00552
14,GATCACCA,0.00992
15,CTCAGCAC,-0.0418
16,CACCAGCA,-0.0753
17,ATGGCTGG,-0.166
18,ACATCCGT,0.0926
19,CCGGGGTC,-0.258
20,ATCAAGGC,0.0014
21,CTACTAGA,0.0742
22,CCCTTTAG,-0.235
23,CTAACCAG,-0.0178
24,CAAATATG,0.0991
25,TAATGCAA,0.143

row,Sequence,PBM E-score
1,ATCTCTCC,-0.0659
2,AAGACGAA,0.0937
3,AAACAGGA,0.0833
4,GATCAATC,0.184
5,GCCAACGC,-0.207
6,CAGCGCTG,0.00506
7,CCGTAGGA,-0.167
8,GACCGCCC,-0.188
9,AAGTCTGT,-0.0835
10,CTACCGTA,0.0347
11,ACCGTTTC,-0.0929
12,CGGGTTGC,-0.0517
13,CCGACAGC,-0.196
14,ATACGAAG,0.18
15,AAATAAAC,0.253
16,AGGGGATA,-0.0855
17,CCTTAACA,-0.102
18,AGAGTCTC,-0.116
19,CCGCAATC,0.045
20,ATTTAGTG,0.256
21,AGGTGTAT,0.0888
22,CTACTCCC,0.121
23,ATGATATA,0.178
24,CTTGGGAC,-0.136
25,CGTAAACG,-0.0894

row,Sequence,PBM E-score
1,ACGGTTAC,0.155
2,ATAGCACA,0.108
3,ATACAAAT,0.252
4,TAATAGCA,-0.00047
5,ATCTTCCG,0.438
6,ACCGATCT,-0.207
7,AAGCATCG,0.0597
8,CGATGAAG,0.128
9,AGACGAAT,0.203
10,GCCCCCGA,-0.397
11,ATTTCTTA,0.195
12,ACTGTTGG,0.0493
13,GTCCGCGA,-0.115
14,ATCGCCGC,-0.137
15,AAGGTGCC,-0.223
16,ACGGCTTC,-0.045
17,GAGAATGA,0.122
18,GTTGATAA,0.259
19,GGCCTCCA,-0.221
20,CGACCACG,0.0048
21,CTGCAGCC,-0.177
22,AAGCTGAA,-0.0362
23,GGAGCACC,-0.205
24,ACTTGCCG,-0.144
25,ATCGAGTG,0.0677

row,Sequence,PBM E-score
1,CTGACAAC,-0.126
2,AGTATGGC,-0.207
3,AGGTTTCG,-0.0132
4,ATCAGGAC,-0.0489
5,CGGATCGC,-0.245
6,GGACGGCA,-0.0865
7,GTGTGACA,-0.106
8,CGTGGCCA,-0.368
9,GGAAGGCA,-0.183
10,CCATTTTA,0.181
11,AATGCGCC,-0.0289
12,ATTTCTCC,0.404
13,AACTTTCT,0.0948
14,ATAGTAGC,0.16
15,ATAGACGA,0.0163
16,CCATGAAG,-0.00549
17,GCGCGCCC,-0.231
18,GCGCACTA,-0.0897
19,ACTATTGC,0.177
20,CTACAACA,0.0972
21,AAGTGAAA,0.29
22,AGGATGTC,-0.0494
23,GAAACATA,0.164
24,CTGGCGGA,-0.157
25,CGATGACA,-0.0734

row,Sequence,PBM E-score
1,CTAGCCCA,-0.142
2,ATCAGCTA,-0.0753
3,CGCTCACA,-0.0795
4,AGGACCTG,-0.19
5,AGTTCAGA,0.243
6,CCGTCTGA,-0.128
7,CCGTTTGA,-0.137
8,ACTTAAGA,0.136
9,ACAATAGC,0.132
10,GTGCGGCA,-0.128
11,CCGTAACG,-0.224
12,TCAGGAGA,0.144
13,AACGTGTC,-0.0306
14,GGAGAGCC,-0.372
15,ACGGTATA,-0.217
16,GAGGTAAA,0.139
17,GAGGGAAC,-0.239
18,GCTTACAC,-0.0308
19,ACGTTGGG,-0.0582
20,ATCCTGCC,-0.248
21,CCGCTCAC,-0.146
22,GGAACAAC,0.454
23,GATGCGAC,-0.0981
24,GTTTCCCA,0.0398
25,ACTTGCCT,-0.00707

row,Sequence,PBM E-score
1,CACGAAGC,-0.0581
2,AAAATTCC,0.231
3,CGCGGCAC,-0.0926
4,GTGGCGAA,-0.0825
5,GAACAGCA,0.161
6,ACAGTCGT,-0.164
7,CCGAGGAC,-0.0855
8,GAAACGTA,0.175
9,GCTCAACA,0.0367
10,AAGCGACT,-0.126
11,ATGACAAC,0.111
12,TGCATAAA,0.218
13,AAGACTCT,0.135
14,AGGACCTC,-0.167
15,GGTTGTCA,0.0462
16,ACGGGGTA,-0.251
17,ACTTCGTC,0.084
18,AGTTCCGA,0.134
19,GCATTTGA,0.136
20,CCGACTTC,-0.29
21,CTTGCTGA,0.0188
22,CACCGCCC,-0.163
